Test results reported in the supplement of paper PMC5499739.
Over roughly 16,000 sequences, “Z-score” has its median near -0.37; the highest 2% begin near 3.1. The list shows a part of the results.

system: RBM10 RRM1-ZnF-RRM2 (GST-tagged construct); experiment: RNAcompete 7-mer binding Z-score; higher = stronger binding preference
Procedure, shortened: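 Each heptamer motif was given a one-sided Z-score for enrichment across the probes that contained it. GST-tagged RBM10 constructs (20 pmol) were combined with 1.5 nmol of a designed pool of 241 399 RNAs of up to 41 nt, transcribed from microarray-derived DNA templates. Binding took place in 1 ml Hepes pH 7.8 buffer containing KCl, NaCl, glycerol, DTT, BSA and glutathione Sepharose beads for 30 min at 4°C. After four 2-min washes at 4°C, bound RNA was identified by microarray hybridisation.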

| Sequence | RNAcompete 7-mer binding Z-score |
| --- | --- |
| ACAAUUU | -0.817 |
| UUAGCCU | -0.89 |
| ACCCGAG | -0.486 |
| CACAGCU | -0.559 |
| UUCAACU | -0.832 |
| UGCUACC | -0.73 |
| ACAUUGC | -0.675 |
| AAUUGUU | -0.508 |
| CAGGAAG | 1.91 |
| UCUUUAA | -0.803 |
| ACCAUAG | -0.449 |
| AUCCUAG | -0.679 |
| CGUGGCU | 0.0677 |
| CACAAAC | -0.428 |
| CGCCCGA | -0.872 |
| AUGAUAC | -0.111 |
| CACCCAU | -0.755 |
| UGACCUU | -0.923 |
| GAGUAGU | 0.68 |
| GUUUUCC | -0.508 |
| ACGUACG | 0.141 |
| AUCUUAU | -0.715 |
| CGGGUUG | 2.32 |

| Sequence | RNAcompete 7-mer binding Z-score |
| --- | --- |
| CAUCUGA | -0.741 |
| ACUUAGG | 0.162 |
| GUAGCAC | 0.111 |
| AGACUUU | -0.897 |
| GGGACUG | 1.78 |
| ACUCCCG | -0.766 |
| CGCUACG | -0.333 |
| GUAUACC | -0.289 |
| GCUUUAA | -0.726 |
| UUCUACU | -0.792 |
| CACGAAA | -0.366 |
| GAUAUAA | -0.00512 |
| CGUCGCU | -0.548 |
| GUUAUAA | -0.246 |
| UUAUCUG | -0.679 |
| AACGUCA | -0.697 |
| GUAUUGG | 1.66 |
| UCACCCG | -0.912 |
| CUUAUGU | -0.821 |
| UCAGUGU | -0.114 |
| CGGCACC | -0.253 |
| UGUGUUA | -0.46 |
| GUUGUGA | 0.468 |

| Sequence | RNAcompete 7-mer binding Z-score |
| --- | --- |
| CGAAGCA | -0.0707 |
| GAAGCGA | 1.16 |
| AUCGGGA | 1.87 |
| CCCACCG | -0.664 |
| GAUACAC | -0.18 |
| UAUGAAG | 0.108 |
| CUAUAUA | -0.621 |
| GCGGAUU | 0.756 |
| UGUUUGA | -0.154 |
| UGUCUAA | -0.719 |
| UGUAGUG | 0.691 |
| ACUUUCG | -0.908 |
| AAGCUAU | -0.275 |
| CCACAUC | -0.73 |
| AGAGAGC | 0.133 |
| AAGAUCA | -0.0488 |
| AGGCCGU | -0.428 |
| CCAAAAA | -0.632 |
| AUCCACU | -0.763 |
| ACGUGUG | 0.417 |
| UCUCACU | -0.792 |
| UUGGCAA | 0.523 |
| CGGAUAU | 0.348 |

| Sequence | RNAcompete 7-mer binding Z-score |
| --- | --- |
| ACCCAUU | -1.02 |
| AAGCCGC | -0.595 |
| GAGUUGC | 0.0568 |
| CGACGCG | 0.0532 |
| CGGACAC | 0.104 |
| UAAGCCC | -0.912 |
| CAGGCCC | -0.69 |
| GGCCUGU | -0.439 |
| GGUCGAG | 1.86 |
| UUGAUUG | -0.154 |
| UUCAAGC | -0.668 |
| CACGGAA | 0.661 |
| GGCUAGA | 0.53 |
| UAGCGGG | 2.46 |
| CAUGCUG | -0.431 |
| GCACACG | -0.0925 |
| AAUUACU | -0.555 |
| UGAAGAA | 0.159 |
| CCACCCA | -0.471 |
| UUCUCGU | -0.672 |
| GUGUGAG | 1.94 |
| GAAAUAC | -0.0925 |
| UGCCCCA | -0.635 |

| Sequence | RNAcompete 7-mer binding Z-score |
| --- | --- |
| GUCCUCG | -0.628 |
| GGCUUAU | -0.428 |
| AUGAUAA | -0.114 |
| AGACGAG | 0.891 |
| GGUAAUU | 0.789 |
| UUGCACA | -0.657 |
| UUUAACA | -0.683 |
| UCCUACU | -1.03 |
| GCGUGGC | 1.4 |
| UGACCUA | -0.781 |
| CAGAGGA | 1.33 |
| GCGUCCG | -0.541 |
| GCCGAUU | -0.744 |
| CUGCACG | -0.661 |
| CUAGUCU | -0.723 |
| GGCGAAU | 0.975 |
| UCAGCAU | -0.315 |
| UCUACCC | -0.839 |
| CUGGAUA | 0.355 |
| CAUUUGC | -1.04 |
| CCUUGCU | -0.963 |
| CGUUUAC | -0.675 |
| GCUGCAA | -0.329 |

| Sequence | RNAcompete 7-mer binding Z-score |
| --- | --- |
| UACCUAC | -0.872 |
| CGUUGAG | -0.0816 |
| CCAGCGC | -0.522 |
| GAGGUGA | 2.6 |
| GCGCCCA | -0.81 |
| CCCGACG | -0.329 |
| GCUUGUA | -0.668 |
| CCCGGGC | -0.205 |
| AGCCACU | -0.897 |
| CAGAUAA | -0.191 |
| UGGAAGC | 1.59 |
| GGAAAUU | 0.938 |
| GUCGGUG | 1.49 |
| CCUUCAU | -0.908 |
| AGAUUUU | -0.471 |
| UGAGUUC | -0.417 |
| UCUUCGA | -0.73 |
| CUUCUCG | -0.65 |
| CUUGAGA | -0.442 |
| UGCAGAC | -0.275 |
| UAAAGUG | 0.304 |
| UAGCUAC | -0.566 |
| UGCCUGU | -0.795 |

| Sequence | RNAcompete 7-mer binding Z-score |
| --- | --- |
| GAGUGUU | 0.432 |
| CACGACC | -0.708 |
| AACACAC | -0.428 |
| UUUAAAC | -0.723 |
| GUUUAUC | -0.551 |
| CCCUCCU | -0.766 |
| CCAACAA | -0.624 |
| UCGUAAA | -0.409 |
| GUCUGGG | 0.935 |
| GUCGGCC | -0.42 |
| GGUUCAA | 0.385 |
| CAAGACG | -0.198 |
| UUAUAAC | -0.657 |
| AUAUAGA | 0.0349 |
| CGUAUAG | -0.067 |
| CAGUUAC | -0.413 |
| GUCGCAG | 0.108 |
| AGCGGCU | 0.0532 |
| AGCACGG | 0.945 |
| CGCACUG | -0.53 |
| CAUCGCG | -0.526 |
| CCCCGCU | -0.617 |
| GGGAGUU | 1.94 |

| Sequence | RNAcompete 7-mer binding Z-score |
| --- | --- |
| AAGCUCU | -0.755 |
| ACACAAC | -0.333 |
| GGGCGCA | 1.38 |
| CGGGUGA | 2.55 |
| GCUGUCG | -0.424 |
| UCAUCAG | -0.475 |
| GUACGCC | -0.373 |
| AUGGUAG | 2.45 |
| AAGUUUU | -0.329 |
| CACAAAU | -0.555 |
| AGUCGUG | 0.366 |
| AAGAGGU | 1.66 |
| UACCCCU | -0.65 |
| AUUCUAC | -0.766 |
| CUUAGGA | 0.122 |
| CUAGUAG | -0.256 |
| GAGUGAC | 0.905 |
| CGCGUAG | 0.0568 |
| CAUCCGU | -0.792 |
| UCCCGUA | -0.431 |
| GAGCAAA | 0.534 |
| UCACGAA | -0.439 |
